Data as given in the supplement of paper PMC12632987.
Over roughly 4,500 sequences, “median log2 fold change of GCK-ALFA target abundance (FLAG IP / Myc IP barcode read proportion)” has its median near 0.078; the lowest 2% begin near -0.6. The list shows a part of the results.

B1: GBRAP_52_6073 (protein)
chain: MEEKIEKLAEEITEAIKAGDDEKALELLEKAVKELSEEEIKKLLVLTAKKVAKLNEEEHERFVDILDEFEDILIENGISEEDALLIVGDALAALAKEVAK
B2: GBRAP_186_5367 (protein)
chain: SEEVEKKIEEIIDEAAKKGWLILGVLEVKELTEESLERIKNELEAGAEFSAEFGYKVKIIIKTTVSEEDFEKLKKEVEEYKEKLEKETGAELEVEIIHEE
B3: GBRAP_125_3100 (protein)
chain: HMEELLEDLKRIALALGFSEEEAEELARLAREGSLKQTLVALFLAEGAEEVADLVAKLTEEQAAEAVRRLAAWLDAHPDATKEEVIAKAKEIAEELLAKA
B4: GBRAP_184_5110 (protein)
chain: KVLEEEIEAENVEELREKLTEAVERAVAEKADLLVIVKIPNLTPEMARVIMEEVHRAKEAGIKNVLVLIESDNLSDEVIDTIDELARKYGITNLVLAMKE
B5: GBRAP_53_6396 (protein)
chain: AEKEIKEGLKELEALIKRVKADPTLDPKEVAKEASALFKALVAAGAPEEELVKLAKELAEAVKAKGLGVEVSTALAKAAAEAGAEEVQYVFTEAAVEDLE
B6: GBRAP_95_7038 (protein)
chain: DDDVLLAESLAEVLETAVDLGDEEAARRAALELLKALLELPKDAVKLSLSPEAVRLIIEVARENLPREEAIEALEKLAAALTDPESKALAQAALEELKAE
B7: GBRAP_128_3303 (protein)
chain: MAPEVRARARELVERIRTGDAEERRAAAEELAALFRAASLEEVEEIAEIVRAALPELSKEALLILAEVLDAALPQFSPEKRAVVADVASDALLEAEELEE
B8: GBRAP_80_6860 (protein)
chain: DEARLAAARARLKALLPEAAALIDEVVAIAKELGVPNADIADLLDALAELAEVDPELAKELLEELLEDLREEKEAGDAENALATVRGYAGEALMEAEELE

What follows are binders tested against GABARAP, O95166 (assay: median log2 fold change of GCK-ALFA target abundance (FLAG IP / Myc IP barcode read proportion) (log2 ratio); each designed protein is fused to an ALFA-tag nanobody in HEK293 cells to bring the named protein to FLAG-tagged glucokinase (GCK); Myc marks an untargeted standard; higher = target protein stabilised (more abundant)). Details: target protein: 3xFLAG-MCP-GCK-ALFA reporter; HEK293 landing pad (RPLP).
Chain of GABARAP, O95166 (O95166 whole entry, the tested form may be a part): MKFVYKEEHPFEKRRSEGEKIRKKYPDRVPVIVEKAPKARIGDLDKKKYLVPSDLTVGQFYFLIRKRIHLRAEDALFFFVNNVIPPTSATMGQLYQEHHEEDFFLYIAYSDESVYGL
Outline: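 Sequencing of reverse-transcribed, amplified circular RNA barcodes from anti-FLAG and anti-Myc immunoprecipitates provided the readout for an ALFA-nanobody-fused binder library recombined into HEK293 landing-pad cells. Those cells were induced with 2 μg mL^−1 doxycycline, transfected with a plasmid expressing a FLAG-tagged target and a Myc-tagged standard, and lysed after 48 h. Target abundance is the per-binder median log2 ratio of FLAG to Myc barcode read proportions. Only barcodes at a proportion of ≥10^−7 in both replicates and binders with ≥3 barcodes per replicate were kept, with a 10^−6 pseudocount added before the two replicates were pooled.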

Binder	median log2 fold change
B1	-0.605
B2	0.118
B3	0.195
B4	0.199
B5	0.274
B6	0.19
B7	0.201
B8	-0.593
